Assay results reported in ChEMBL document CHEMBL1201862, “PubChem BioAssay data set” (2004).
Values joined by “and” are separate entries in the source; they are usually repeats but may differ in a detail not shown here. Equal values may be shown once.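 Dose response: 5 concentrations. Exposure: 48 h. Format: 96-well plates. Endpoint: linear interpolation; highest concentration if not reached. GI50 = concentration required for 50% inhibition of growth.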 Active and inactive are the calls of the source. No stated cut-off is given here; in the data, active = GI50 up to about 1.1 µM and inactive = higher.

These molecules were tested on NCI-H322M (assay: NCI-60 cell line screen, 48 h).

SMILES	GI50
CN(C)CCNC(=O)c1ccc(NCCCN(C)CCCNc2ccc(C(=O)NCCN(C)C)c3nc4ccc([N+](=O)[O-])cc4c(O)c23)c2c(O)c3cc([N+](=O)[O-])ccc3nc12	active: < 0.01 µM
O=C(/C=C/c1ccc(Cl)c(Cl)c1)Oc1ccc(/C=C2\CCCCC2=O)cc1	inactive: > 100 µM
Cc1ccc2c(O)cc(-c3csc4ccccc34)nc2n1	active: 0.0376 µM
CC1=NOC(=O)/C1=C/c1ccc2c(c1)OCO2	inactive: > 100 µM
O=C(O)C(Cc1ccccc1-c1ccccc1)C(=O)O	inactive: > 100 µM
NC1=C(Br)C(=O)c2ncccc2C1=O	inactive: 1.31 µM
O=C(O)c1cccc(C(=O)O)c1[S+]([O-])Cc1ccccc1 (stereo not drawn)	inactive: > 100 µM
O=C(Nc1ccccc1C(=O)Nc1nccs1)c1ccccc1	inactive: 20.7 µM
CC(C)(C)NCCC(O)c1cc(C(F)(F)F)nc2c(C(F)(F)F)cccc12 (stereo not drawn)	inactive: 12.4 µM
COC(=O)C1C(=O)N(CCc2c[nH]c3ccccc23)C[C@@H]2CCC(=O)C[C@H]12 (stereo partly drawn)	inactive: > 100 µM
CN(C)CCOC1(Cc2ccc(Cl)cc2Cl)CCC(C(C)(C)C)CC1 (stereo not drawn)	inactive: 1.75 µM
O=c1c2c(c1=O)-c1ccccc1CN2	inactive: > 100 µM
Cc1ccc(C)c(NC(=O)CC2SC(Nc3ccccc3Cl)=NC2=O)c1 (stereo not drawn)	inactive: > 100 µM
CCOC(=O)C(=CNC(Cc1c[nH]c2ccccc12)C(=O)OC)C(=O)OCC (stereo not drawn)	inactive: > 100 µM
Cc1ccc(S(=O)(=O)NCCSS(=O)(=O)c2ccc(C)cc2)cc1	inactive: 80.4 µM
C[C@]12CCC(=O)C=C1CC[C@@H]1C2CC[C@]2(C)Nc3c(cnn3-c3ccccc3)CC12 (stereo partly drawn)	inactive: > 100 µM
CC1(CO)C(O)CCC2(C)C1C(O)CC1CC3CC12CCC3(O)CO (stereo not drawn)	inactive: > 225 µM
O=C1C(NCCc2cc(Cl)c(O)c(Cl)c2)=CC(=O)c2[nH]cnc21	inactive: 44.9 µM
O=c1oc2ccc([N+](=O)[O-])cc2c(Nc2ccc3c(c2)Sc2ccccc2O3)c1[N+](=O)[O-]	inactive: 21.1 µM
C=C1C(=O)O[C@H]2C1[C@H](OC(=O)/C(C)=C\COC(C)=O)C[C@]1(CO1)[C@@H]1[C@H](O)[C@H]3O[C@@]3(C)[C@@H]12 (stereo partly drawn)	inactive: > 100 µM
Cc1c(/C=N/NC(=O)c2cc(Br)cc(Br)c2O)c(=O)n(-c2ccccc2)n1C	inactive: 62.2 µM
O=C(CSc1nnc(SCC(=O)NN=C2CCCCC2)s1)NN=C1CCCCC1	inactive: > 100 µM

SMILES	GI50
O=C(O)c1cc2ccccc2c(/N=N/c2ccc(S(=O)(=O)Nc3ccccn3)cc2)c1O	inactive: > 100 µM
Cc1cc(Cl)ccc1NC(=O)CC1SC(N)=NC1=O (stereo not drawn)	inactive: > 100 µM
COc1cc(C#CC(=O)OC/C=C/c2ccc3c(c2)OCO3)cc(OC)c1OC	inactive: 30.6 µM
C=O.NNCCc1n[nH]c(=O)n1N	inactive: > 100 µM
CC(=O)Nc1ccc(/C=C/C(=O)c2sc(-n3nc(-c4ccccc4)cc3-c3ccccc3)nc2C)cc1	inactive: > 100 µM
O=C(c1ccccc1)c1ccc(N2C(=O)/C(=C/c3ccccc3S)N=C2c2ccccc2)c(N2C(=O)/C(=C/c3ccccc3S)N=C2c2ccccc2)c1	inactive: > 100 µM
COc1ccc(C=O)cc1OS(=O)(=O)C(F)(F)C(F)(F)C(F)(F)C(F)(F)F	inactive: > 100 µM
C=C[Si](C)(C)COC(=O)/C(C#N)=C/C=C/c1ccccc1	inactive: > 100 µM
CCCCc1c2c([n+]([O-])c3c1CCCC3)CCCC2	inactive: > 100 µM
Cc1sc(/N=C/c2c[nH]c3ccccc23)c(C#N)c1C	inactive: 39 µM
C[C@]12CCC(O)CC1=CC[C@@H]1[C@@H]2CC[C@]2(C)C(=O)[C@H](n3ccnc3)C[C@@H]12 (stereo partly drawn)	inactive: > 100 µM
CC1=NCCN=C(C)C1/N=N/c1ccc2[nH]c(C)nc2c1	inactive: 14.8 µM
Cc1cc(=O)oc2c1cc1ccc3cccc4ccc2c1c34	inactive: > 100 µM
CC(C)(O)/C=C\P(C)(=O)c1ccccc1 (stereo not drawn)	inactive: > 100 µM
C[C@@H]1CC[C@@H]2[C@@H](C1)O[C@@H]([C@H](C)OCc1ccccc1)SC2(C)C	inactive: 21.1 µM
COc1ccc2c(c1)-c1c(c3ccccc3n1CCN1CCOCC1)CC2	inactive: 31.9 µM
CCCCOC(=O)C(=O)C(CC(C(=O)Cc1ccccc1)c1ccccc1)C(=O)C=C(C)C (stereo not drawn)	inactive: > 100 µM
COc1cccc(-c2nc(-c3cnccn3)n(C3OC(CO)C(O)C3O)n2)c1 (stereo not drawn)	inactive: > 100 µM
CCCCCC1=C2C(c3ccc(OC)cc3)=C(N)C(c3ccc(OC)cc3)=C3NC(=O)C(C=C1)C32 (stereo not drawn)	inactive: > 100 µM
Cc1cc(O)c(C(O)c2ccccn2)cc1O (stereo not drawn)	inactive: > 100 µM
Nc1ccc(C(=O)N/C(=C\c2ccc3c(c2)OCO3)c2nc3ccccc3s2)cc1	inactive: 16.3 µM
Cn1c(=O)oc2cc(Br)ccc21	inactive: > 100 µM

SMILES	GI50
Cc1ccc([N+](=O)[O-])cc1NC(=O)C(=O)C1CCC2=C(Sc3ccccc3N2)C1=O (stereo not drawn)	inactive: > 100 µM
CCOC(=O)Cn1nc2ccc(Nc3c(C)[n+]([O-])c4cc(F)c(OCC)cc4[n+]3[O-])cc2n1	inactive: > 100 µM
CCOC(=O)c1c(-c2ccc(OC)c(O)c2)c(C#N)c(=S)n(C2OC(CO)C(O)C(O)C2O)c1-c1ccccc1 (stereo not drawn)	inactive: > 100 µM
COC(=O)c1c(C)nc(C)c(NO)c1-c1ccccc1C(F)(F)F	inactive: > 100 µM
COc1ccccc1/C=C1/Sc2scc(CC(=O)Nc3ccccc3)[n+]2C1=O	inactive: 33.3 µM
N#Cc1c2c(c(Nc3cccc(C(F)(F)F)c3)n3c1nc1ccccc13)CCC2	inactive: > 100 µM
CC(C)(CO)CNc1nc(N)nc(Cl)c1C=O	inactive: 27 µM
O=c1[nH]nc(Cc2ccccc2)n1C1CC1	inactive: > 100 µM
Cc1cc(=O)oc2c1cc(OCC(=O)OCCN1CCCCC1)c1occ(C)c12	inactive: > 100 µM
O=C(NCCCCCCO)c1cccc2cc3ccccc3nc12	inactive: 22.1 µM
Cc1c(/C=N\NC(=S)N2CCN(C(=S)N/N=C\c3c(C)n(C)n(-c4ccccc4)c3=O)CC2)c(=O)n(-c2ccccc2)n1C	inactive: 54.7 µM
Fc1cc(C2=Nn3c(COc4ccccc4Cl)nnc3S/C2=C\c2ccc(Cl)cc2)c(Cl)cc1Cl	inactive: 3.42 µM
NNC(=O)CNC(=O)CSc1nnc(COc2ccc(Cl)cc2)n1-c1ccccc1	inactive: > 100 µM
Cc1cnc2c(c1)C(=O)C1=C(C2=O)C2OC(=O)CC2OC1(C)C (stereo not drawn)	inactive: 2.2 µM
Cc1ccc(S(=O)(=O)OC2C3OC(C)(C)OC3OC2C(c2cc(O)c3c(c2O)C(=O)c2ccccc2C3=O)c2cc(O)c3c(c2O)C(=O)c2ccccc2C3=O)cc1 (stereo not drawn)	inactive: > 10 µM
Cc1c(F)c(NC(=O)CN(C)C)c2c(=O)cc(-c3ccc(NC(=O)CN(C)C)c(F)c3)oc2c1F	inactive: 16.1 µM
CCOP(=O)(OCC)/C(=C/NC(=S)c1ccncc1)C(=O)OC	inactive: > 100 µM
O=C1N/C(=N/N=C\C(O)C(O)C(O)CO)N/C1=C/c1ccc(Cl)cc1 (stereo not drawn)	inactive: 68.1 µM and inactive: 65 µM
COc1cccc(C2c3cc4c(cc3OC(Nc3ccccc3)C2C)OCO4)c1O (stereo not drawn)	inactive: 12.6 µM
COC(=O)C(Cc1cn(C(C)n2cc(CC(NC(C)=O)C(=O)OC)c3ccccc32)c2ccccc12)NC(C)=O (stereo not drawn)	inactive: > 100 µM
CN(C)c1ccc(/C=C(\NC(=O)c2ccccc2)C2NC(Cc3c[nH]c4ccccc34)C(=O)O2)cc1 (stereo not drawn)	inactive: > 100 µM
O=c1c(Cl)cc2nc3ccccc3sc-2c1Cl	inactive: 16.2 µM

SMILES	GI50
CN(C)c1ccc(Cc2cc(C(C)(C)C)cc(C(C)(C)C)c2O)cc1	inactive: 19.5 µM
Clc1cc2nnn(C3CCCO3)c2cc1Cl (stereo not drawn)	inactive: > 100 µM
Nc1cc(C(=O)NC2C3CC4CC(C3)CC2C4)nc(S)n1 (stereo not drawn)	inactive: > 100 µM
CC(C)CC(NC(=O)C(CSc1ccc([N+](=O)[O-])cc1)Cc1ccccc1)C(=O)Nc1ccccc1 (stereo not drawn)	inactive: > 100 µM
O[C@@]1(c2cccs2)c2cccc(Cl)c2[C@](O)(c2cccs2)c2cccc(Cl)c21	inactive: 24.4 µM
CCCCCCCCCCCCNC1(C)CNCCCNCCNCCCNC1	inactive: 1.7 µM
CC(C)N(C(C)C)S(=O)(=O)C[C@]12CC[C@H](CC13OCC(CS(=O)(=O)c1ccccc1)O3)C2(C)C (stereo partly drawn)	inactive: > 84.1 µM
Cc1ccc2c(c1)CN(C(=O)CCC(=O)OCc1ccccc1)c1ccc(C)cc1CN2C(=O)CCC(=O)OCc1ccccc1	inactive: > 34 µM
CCOC(=O)c1cc2c([nH]1)C(=O)CC1=C2CCN1Cc1ccccc1	inactive: 14.6 µM
Clc1ccccc1C1N2CCCCC2[C@@H]2c3[nH]c4ccccc4c3CCN12 (stereo partly drawn)	inactive: 16.7 µM
Cc1ccc(S(=O)(=O)NNC(=O)Nc2cccc(C(F)(F)F)c2)cc1	inactive: > 100 µM
CC1=C(C(=O)Nc2c(C)cccc2C)C(c2ccc3c(c2)OCO3)C(C(=O)Nc2c(C)cccc2C)=C(C)N1	inactive: 13.8 µM
CCOC(=O)c1cc(C2=CCNC2=O)c(-c2cc(C)no2)[nH]1	inactive: 64.6 µM
N#C[C-](C#N)[n+]1ccc(Cl)cc1	inactive: > 10 µM
O=[N+]([O-])c1cccc(/N=N/c2c(O)ccc3ccccc23)c1	inactive: > 100 µM
O=C(NCCO)Nc1c(C(F)(F)F)cc(-c2ccccc2)[nH]c1=O	inactive: > 100 µM
C[C@@H](NC(C#N)c1ccco1)c1ccccc1 (stereo partly drawn)	inactive: > 100 µM
C[Si](C)(OCCS(=O)(=O)O)OC(=C1S(=O)(=O)OCCOS1(=O)=O)c1cccc2ccccc12	inactive: > 100 µM
COc1ccc2nc3cc(Cl)ccc3c(NCCCNCCCNc3c4ccc(Cl)cc4nc4ccc(OC)cc34)c2c1	active: 0.0285 µM
CCCC(=O)Nc1cc(/C=C/C(=O)N2CC(CCl)c3ccc(N)cc32)n(C)c1 (stereo not drawn)	active: 0.264 µM
O=C(CC(=O)c1ccccc1)c1ccccc1.O=C(CC(=O)c1ccccc1)c1ccccc1.O=C(CC(=O)c1ccccc1)c1ccccc1.[SiH4]	inactive: 2.66 µM
COc1ccc(OC)c(CC(=O)c2ccc(O)c(C(=O)NCCc3ccc(F)cc3)c2)c1	inactive: 3.33 µM
